# The other results are listed elsewhere or left out. The list includes weakly bound sequences.
# Biological target: T1, MBP-FoxP3dN (UniProt Q99JB6)
# T1 sequence: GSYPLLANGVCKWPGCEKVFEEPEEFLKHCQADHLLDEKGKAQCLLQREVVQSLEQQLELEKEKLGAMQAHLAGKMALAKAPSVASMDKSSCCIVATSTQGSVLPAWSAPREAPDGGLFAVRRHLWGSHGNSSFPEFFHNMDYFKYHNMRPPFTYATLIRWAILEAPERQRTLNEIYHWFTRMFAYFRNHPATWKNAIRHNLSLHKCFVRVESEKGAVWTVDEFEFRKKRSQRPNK
# Assay: PD-seq (MBP pull-down with sequencing)
# Conditions: 20 mM Tris-HCl pH 7.5, 100 mM NaCl, 1.5 mM MgCl2, 0.4 uM protein, 0.1 uM dsDNA library, 30 min, room temperature, amylose pull-down; high values mean tight binding; double strand, one strand shown
row,Sequence,binding signal (RPM ratio (pull-down/input))
1,GATGATTGTTCTCCCAGCTGATGAATTCTACTATTCGAGTAAACAAATTTTCCTAATCTTTCTGTTCAAGCGCCATCTAC,0.531
2,GATGATTGTTCTCCCAGCTGATGAATTCAGTTGTTCGAGTAAACAAATTTTCCTAATCTTTCTGTTCAAGCGCCATCTAC,4.73
3,GATGATTGTTCTCCCAGCTGATGAATTGCCATCGTCGAGTAAACAAATTTTCCTAATCTTTCTGTTCAAGCGCCATCTAC,0.955
4,GATGATTGTTCTCCCAGCTGATGAATTGAGCACGTCGAGTAAACAAATTTTCCTAATCTTTCTGTTCAAGCGCCATCTAC,0.919
5,GATGATTGTTCTCCCAGCTGATGAATTCGCCTACTCGAGTAAACAAATTTTCCTAATCTTTCTGTTCAAGCGCCATCTAC,0.545
6,GATGATTGTTCTCCCAGCTGATGAATTGTTCTACTCGAGTAAACAAATTTTCCTAATCTTTCTGTTCAAGCGCCATCTAC,0.433
7,GATGATTGTTCTCCCAGCTGATGAATTTACAATTTCGAGTAAACAAATTTTCCTAATCTTTCTGTTCAAGCGCCATCTAC,0.441
8,GATGATTGTTCTCCCAGCTGATGAATTGTTTGGGTCGAGTAAACAAATTTTCCTAATCTTTCTGTTCAAGCGCCATCTAC,4.43
9,GATGATTGTTCTCCCAGCTGATGAATTTCACGTGTCGAGTAAACAAATTTTCCTAATCTTTCTGTTCAAGCGCCATCTAC,0.496
10,GATGATTGTTCTCCCAGCTGATGAATTGAGATCGTCGAGTAAACAAATTTTCCTAATCTTTCTGTTCAAGCGCCATCTAC,0.315
11,GATGATTGTTCTCCCAGCTGATGAATTAAATTCTTCGAGTAAACAAATTTTCCTAATCTTTCTGTTCAAGCGCCATCTAC,0.406
12,GATGATTGTTCTCCCAGCTGATGAATTAATATTCTCGAGTAAACAAATTTTCCTAATCTTTCTGTTCAAGCGCCATCTAC,0.859
13,GATGATTGTTCTCCCAGCTGATGAATTACCAAGCTCGAGTAAACAAATTTTCCTAATCTTTCTGTTCAAGCGCCATCTAC,0.305
14,GATGATTGTTCTCCCAGCTGATGAATTCACCGAGTCGAGTAAACAAATTTTCCTAATCTTTCTGTTCAAGCGCCATCTAC,0.204
15,GATGATTGTTCTCCCAGCTGATGAATTCTGTCTATCGAGTAAACAAATTTTCCTAATCTTTCTGTTCAAGCGCCATCTAC,2.88
16,GATGATTGTTCTCCCAGCTGATGAATTGTCCCCGTCGAGTAAACAAATTTTCCTAATCTTTCTGTTCAAGCGCCATCTAC,0.293
17,GATGATTGTTCTCCCAGCTGATGAATTGAGGCTTTCGAGTAAACAAATTTTCCTAATCTTTCTGTTCAAGCGCCATCTAC,1.16
18,GATGATTGTTCTCCCAGCTGATGAATTTCGCCCTTCGAGTAAACAAATTTTCCTAATCTTTCTGTTCAAGCGCCATCTAC,1.46
19,GATGATTGTTCTCCCAGCTGATGAATTTACGTTGTCGAGTAAACAAATTTTCCTAATCTTTCTGTTCAAGCGCCATCTAC,0.962
20,GATGATTGTTCTCCCAGCTGATGAATTAGCTAGGTCGAGTAAACAAATTTTCCTAATCTTTCTGTTCAAGCGCCATCTAC,0.392
21,GATGATTGTTCTCCCAGCTGATGAATTGAATCGTTCGAGTAAACAAATTTTCCTAATCTTTCTGTTCAAGCGCCATCTAC,0.421

row,Sequence,binding signal (RPM ratio (pull-down/input))
1,GATGATTGTTCTCCCAGCTGATGAATTTTGTACCTCGAGTAAACAAATTTTCCTAATCTTTCTGTTCAAGCGCCATCTAC,2.04
2,GATGATTGTTCTCCCAGCTGATGAATTAGCCGATTCGAGTAAACAAATTTTCCTAATCTTTCTGTTCAAGCGCCATCTAC,0.287
3,GATGATTGTTCTCCCAGCTGATGAATTCACGAGTTCGAGTAAACAAATTTTCCTAATCTTTCTGTTCAAGCGCCATCTAC,0.381
4,GATGATTGTTCTCCCAGCTGATGAATTACAGGTTTCGAGTAAACAAATTTTCCTAATCTTTCTGTTCAAGCGCCATCTAC,0.581
5,GATGATTGTTCTCCCAGCTGATGAATTTCTAGATTCGAGTAAACAAATTTTCCTAATCTTTCTGTTCAAGCGCCATCTAC,0.247
6,GATGATTGTTCTCCCAGCTGATGAATTACTGCATTCGAGTAAACAAATTTTCCTAATCTTTCTGTTCAAGCGCCATCTAC,6.01
7,GATGATTGTTCTCCCAGCTGATGAATTACAGAGTTCGAGTAAACAAATTTTCCTAATCTTTCTGTTCAAGCGCCATCTAC,0.414
8,GATGATTGTTCTCCCAGCTGATGAATTTGCGCTATCGAGTAAACAAATTTTCCTAATCTTTCTGTTCAAGCGCCATCTAC,1.33
9,GATGATTGTTCTCCCAGCTGATGAATTTCCTACGTCGAGTAAACAAATTTTCCTAATCTTTCTGTTCAAGCGCCATCTAC,0.26
10,GATGATTGTTCTCCCAGCTGATGAATTGCACCGATCGAGTAAACAAATTTTCCTAATCTTTCTGTTCAAGCGCCATCTAC,0.71
11,GATGATTGTTCTCCCAGCTGATGAATTCCGTATTTCGAGTAAACAAATTTTCCTAATCTTTCTGTTCAAGCGCCATCTAC,2.56
12,GATGATTGTTCTCCCAGCTGATGAATTCTCGCCCTCGAGTAAACAAATTTTCCTAATCTTTCTGTTCAAGCGCCATCTAC,0.446
13,GATGATTGTTCTCCCAGCTGATGAATTAAGCCGATCGAGTAAACAAATTTTCCTAATCTTTCTGTTCAAGCGCCATCTAC,0.427
14,GATGATTGTTCTCCCAGCTGATGAATTACACCGTTCGAGTAAACAAATTTTCCTAATCTTTCTGTTCAAGCGCCATCTAC,0.568
15,GATGATTGTTCTCCCAGCTGATGAATTACATTGCTCGAGTAAACAAATTTTCCTAATCTTTCTGTTCAAGCGCCATCTAC,0.881
16,GATGATTGTTCTCCCAGCTGATGAATTGGCAACCTCGAGTAAACAAATTTTCCTAATCTTTCTGTTCAAGCGCCATCTAC,1.43
17,GATGATTGTTCTCCCAGCTGATGAATTGGTCCGCTCGAGTAAACAAATTTTCCTAATCTTTCTGTTCAAGCGCCATCTAC,0.274
18,GATGATTGTTCTCCCAGCTGATGAATTACACATATCGAGTAAACAAATTTTCCTAATCTTTCTGTTCAAGCGCCATCTAC,0.87
19,GATGATTGTTCTCCCAGCTGATGAATTGTCAATGTCGAGTAAACAAATTTTCCTAATCTTTCTGTTCAAGCGCCATCTAC,0.491
20,GATGATTGTTCTCCCAGCTGATGAATTTGGGTGCTCGAGTAAACAAATTTTCCTAATCTTTCTGTTCAAGCGCCATCTAC,0.727
21,GATGATTGTTCTCCCAGCTGATGAATTAAGTATGTCGAGTAAACAAATTTTCCTAATCTTTCTGTTCAAGCGCCATCTAC,2.38

row,Sequence,binding signal (RPM ratio (pull-down/input))
1,GATGATTGTTCTCCCAGCTGATGAATTACGGTGCTCGAGTAAACAAATTTTCCTAATCTTTCTGTTCAAGCGCCATCTAC,0.603
2,GATGATTGTTCTCCCAGCTGATGAATTCGTGACTTCGAGTAAACAAATTTTCCTAATCTTTCTGTTCAAGCGCCATCTAC,0.606
3,GATGATTGTTCTCCCAGCTGATGAATTCATGTTATCGAGTAAACAAATTTTCCTAATCTTTCTGTTCAAGCGCCATCTAC,1.28
4,GATGATTGTTCTCCCAGCTGATGAATTTCGGGGCTCGAGTAAACAAATTTTCCTAATCTTTCTGTTCAAGCGCCATCTAC,0.284
5,GATGATTGTTCTCCCAGCTGATGAATTAGTAGAATCGAGTAAACAAATTTTCCTAATCTTTCTGTTCAAGCGCCATCTAC,0.317
6,GATGATTGTTCTCCCAGCTGATGAATTCGTATACTCGAGTAAACAAATTTTCCTAATCTTTCTGTTCAAGCGCCATCTAC,4.11
7,GATGATTGTTCTCCCAGCTGATGAATTTACGGGTTCGAGTAAACAAATTTTCCTAATCTTTCTGTTCAAGCGCCATCTAC,0.55
8,GATGATTGTTCTCCCAGCTGATGAATTCTAGAAATCGAGTAAACAAATTTTCCTAATCTTTCTGTTCAAGCGCCATCTAC,0.269
9,GATGATTGTTCTCCCAGCTGATGAATTTTTCTGTTCGAGTAAACAAATTTTCCTAATCTTTCTGTTCAAGCGCCATCTAC,0.264
10,GATGATTGTTCTCCCAGCTGATGAATTAACTTACTCGAGTAAACAAATTTTCCTAATCTTTCTGTTCAAGCGCCATCTAC,0.694
11,GATGATTGTTCTCCCAGCTGATGAATTCCTGGGCTCGAGTAAACAAATTTTCCTAATCTTTCTGTTCAAGCGCCATCTAC,0.186
12,GATGATTGTTCTCCCAGCTGATGAATTTACAGGCTCGAGTAAACAAATTTTCCTAATCTTTCTGTTCAAGCGCCATCTAC,0.441
13,GATGATTGTTCTCCCAGCTGATGAATTGGCGCCTTCGAGTAAACAAATTTTCCTAATCTTTCTGTTCAAGCGCCATCTAC,3.06
14,GATGATTGTTCTCCCAGCTGATGAATTTGTTATTTCGAGTAAACAAATTTTCCTAATCTTTCTGTTCAAGCGCCATCTAC,7.62
15,GATGATTGTTCTCCCAGCTGATGAATTTACTCGCTCGAGTAAACAAATTTTCCTAATCTTTCTGTTCAAGCGCCATCTAC,0.399
16,GATGATTGTTCTCCCAGCTGATGAATTTGGGCGCTCGAGTAAACAAATTTTCCTAATCTTTCTGTTCAAGCGCCATCTAC,0.605
17,GATGATTGTTCTCCCAGCTGATGAATTGCTGGCTTCGAGTAAACAAATTTTCCTAATCTTTCTGTTCAAGCGCCATCTAC,0.508
18,GATGATTGTTCTCCCAGCTGATGAATTCAGTGGTTCGAGTAAACAAATTTTCCTAATCTTTCTGTTCAAGCGCCATCTAC,1.28
19,GATGATTGTTCTCCCAGCTGATGAATTTTCTGGGTCGAGTAAACAAATTTTCCTAATCTTTCTGTTCAAGCGCCATCTAC,0.203
20,GATGATTGTTCTCCCAGCTGATGAATTACCACTATCGAGTAAACAAATTTTCCTAATCTTTCTGTTCAAGCGCCATCTAC,0.53
21,GATGATTGTTCTCCCAGCTGATGAATTACGTTGGTCGAGTAAACAAATTTTCCTAATCTTTCTGTTCAAGCGCCATCTAC,1.3
